About 60 (0.1%) of roughly 46,000 compounds were called active. Inconclusive results (about 3%) are left out. Calls follow the shape of the dose curve; as a rule, active = well fitted inhibition curve with a large enough effect; inconclusive = small, poorly fitted or top-dose-only effect; inactive = no such curve, though single readings can be large or run the other way. Some of the results follow.
Assay: Primary qHTS assay for Inhibitors of ovarian cancer metastasis using an organotypic tumor microenvironment (TME) model. Also: nearly all actives have a fitted effect of over 65% in size.
Conditions: SKOV3ip1-GFP adhesion/invasion on 3D omental model, fluorescence; series mostly up to 45.8 µM; activity change, negative = inhibition: at the top concentration
Source text: PI: Ernst Lengyel MD., Ph.D. Department of Obstetrics and Gynecology, Section of Gynecologic Oncology University of Chicago Medicine, Chicago, Illinois. The tumor microenvironment (TME) is a key determinant of metastatic efficiency. We performed a quantitative high-throughput screen (qHTS) of diverse medicinal chemistry tractable scaffolds (44,420 compounds) and pharmacologically active small molecules (386 compounds) using a layered organotypic, robust assay representing the ovarian cancer metastatic TME. This 3D model contains primary human mesothelial cells, fibroblasts, and extracellular matrix, to which fluorescently labeled ovarian cancer cells are added. Initially, 100 compounds inhibiting ovarian cancer adhesion/invasion to the 3D model in a dose-dependent manner were identified. Of those, eight compounds were confirmed active in five high-grade serous ovarian cancer cell lines and were further validated in secondary in vitro and in vivo biological assays. […] Specifically, NCGC00117362 and PP-121 inhibited ovarian cancer adhesion, invasion, and proliferation, whereas milciclib inhibited ovarian cancer invasion and proliferation. […] To evaluate the clinical potential of NCGC00117362, structure - activity relationship studies were performed. […] The three compounds identified have promise as therapeutics for prevention and treatment of ovarian cancer metastasis.
PROTOCOL TABLE (as described by Inglese J, Shamu CE and Guy RK. 2007) SEQUENCE No. (e.g., 1, 2, 3, etc.); […] (e.g., Cells, Incubation, Reagent, etc.); VALUE; DESCRIPTION. 1; Cells; 4 uL; primary human omental fibroblast, black, clear bottom, low base, 1536-well Aurora assay plate. 2; Incubation; 48 hr; 37C. 3; Cells; 3 uL; 1,200 SKOV3ip1-GFP cells. 4; Compounds; 23nL; acoustic dispenser. 5; Incubation; 2 hr; room temperature. 6; Incubation; 16 hr; 37C. 7; Wash; 5 uL; 1x PBS. 8; Fixing; 5 uL; 4% paraformaldehyde (PFA). 9; Incubation; 15 min; room temperature 10; Wash, 5 uL; 1x PBS. 11; Detection; Fluorescence, excitation filter 488 nm, emission filter 509 nm. NOTES (numbers refer to Sequence numbers above) 1. For the 1,536-well format, 40 primary human omental fibroblasts and 400 mesothelial cells were seeded with 0.02 µg fibronectin and 0.02 µg collagen type I in 4 µL of growth media (2.3 mm2; Supplementary Fig. S1A). 2. Assay plates were incubated for 48 hours at 37 C. 3. After incubation, 1,200 SKOV3ip1-GFP were seeded in 3 µL of serum-free media (growth media minus FBS) on top of primary human omental cells. 4. Compounds or controls were added to each well immediately after the addition of the cancer cells. Compounds were screened in four doses (0.36-46 µmol/L), and the plates contained the positive control (Tomatine) in eight doses (0.035-75 µmol/L) and DMSO (equal volume controls) 5 - 6. The plates were incubated at room temperature for 2 hours and then at 37 degrees C for 16 hours. 7 - 10. Following incubation, the media were aspirated and each well washed with PBS (5 µL) and then fixed with 4% paraformaldehyde (PFA; 5 µL). After 15 minutes, the PFA solution was aspirated, PBS (5 µL) was added. 11. The number of GFP-labeled cells analyzed using a fluorescent cytometer TTP LabTech Acumen eX3 using 488 nm excitation filter and 509 nm emission filter. Data was normalized to the DMSO treated for negative and Tomatine treated wells for positive control. REFERENCES: Inglese J, Shamu CE and Guy RK, Reporting data from high throughput screening of small molecule libraries, Nature Chemical Biology, 2007, 3(8): 438-441. doi.org/10.1038/nchembio0807-438. Yasgar A, Shinn P, Jadhav A, Auld DS, Michael S, Zheng W, Austin CP, Inglese J and Simeonov A, Compound Management for Quantitative High-Throughput Screening. J. Assoc. Lab. Auto., 2008, 13: 79-89. doi: 10.1016/j.jala.2007.12.004.

Activity change, negative = inhibition, inactive:
CCCN(C(=O)NCc1noc2ccc(C)cc12)c1ccc(Cl)c(Cl)c1 -11.3%, COc1ccc(N2CCN(C(=O)c3nn(C)c4c3CSc3ccccc3-4)CC2)cc1 -3.15%, CCCc1cc(=O)[nH]c(SCc2nc(-c3ccc(OC)cc3)no2)n1 2.24%, Cc1cn([C@H]2C[C@H](N=[N+]=[N-])[C@@H](CO)O2)c(=O)[nH]c1=O -4.12%, O=C(Cn1c(SCCOc2ccccc2Cl)nc2ccccc21)N1CCCCC1 10.2%, CCOC(=O)c1ccccc1NC(=O)c1sc2ncn(CC)c(=O)c2c1C 5.02%, Cc1ccc(S(=O)(=O)Nc2cc3c(C(=O)OCc4ccccc4)c(C)oc3c3ccccc23)cc1 3.76%, Cc1ccc(C)c(NC(=O)Cn2c(=O)n(Cc3ccco3)c(=O)c3ccc(C(=O)NC4CCCC4)cc32)c1 -1.79%, COc1ccc(CC(=O)NCCc2csc(-c3cccc(F)c3)n2)cc1OC 0.643%, COc1cccc(CNC(=O)c2nnc(Cc3ccc(Cl)cc3)o2)c1 4.87%, O=C(Nc1ccc2oc(-c3cc(Br)ccc3Cl)nc2c1)c1ccc2ccccc2c1 -26.2%, CCOCCc1nn2c(=O)cc(COC(=O)c3ccco3)nc2s1 -8.61%, O=C(NCc1ccc(Cl)cc1)C1CCN(S(=O)(=O)c2ccc3c(c2)CCCN3C(=O)C2CCC2)CC1 -2.16%, CCOc1ccc(NC(=O)c2noc3c2CSc2ccccc2-3)cc1 6.23%, O=C(CSc1nc(O)c(C/C=C/c2ccccc2)c(=O)[nH]1)Nc1cccc(F)c1 -13.1%, CC(C)(C)c1ccc(S(=O)(=O)N2CCN(C(=O)c3cc(-c4ccc(Br)cc4)n[nH]3)CC2)cc1 -7.77%, CCOC(=O)Cn1c(=O)n(C2CCCCC2)c2nc(-c3cccc(C)c3)nc(C(N)=O)c21 -7.36%, COc1ccc(-n2c(SCC(=O)NCc3ccccc3)nc3n[nH]c(C)c3c2=N)cc1 -17%, CN(C(=O)c1oc(=O)c2ccccc2c1-c1ccccc1)c1cccc(Cl)c1 9.03%, CCCn1c(=O)c2sccc2n2c(CCCC(=O)Nc3ccccc3F)nnc12 9.44%

outcome, inactive:
Cc1cc(C)cc(OCC(=O)NCC2(N3CCOCC3)CCCCC2)c1, O=C(C1CCN(c2ncnc3c2nc2n3CCCCC2)CC1)N1CCN(c2ccccc2)CC1, N#Cc1ccccc1Cn1c(=O)n(-c2ccc(F)c(Cl)c2)c(=O)c2sccc21, COc1cc(-c2noc(-c3ccc(N4CCCCC4)c([N+](=O)[O-])c3)n2)cc(OC)c1OC, O=C1CC(c2cccc(F)c2)c2c(n3ncnc3[nH]c2=O)N1 (stereo unspecified), COc1cccc(N2CCN(C(=O)Cn3ncc4c(=O)oc5ccccc5c43)CC2)c1
